The supplement of paper PMC11417369
This is one part of the list.

Test system: PfHDP1 homeodomain (GST-tagged)
Assay: gcPBM binding intensity (ln(normalized median fluorescence intensity)); higher = stronger DNA binding
Outline: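 Alexa488 anti-GST antibody, scanned at 488 nm, detected GST-tagged P. falciparum DNA-binding domains that had been expressed in E. coli and incubated for 1 h on an Agilent 4 × 180k array. The array carried primer-extended double-stranded 36-bp intergenic genomic probes and negative controls. Binding intensity is the highest Masliner-normalised natural-log median intensity across replicate spots of either orientation of each probe.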

Sequence	gcPBM binding intensity (ln)
ATTAATATTTAGACTTGTACATATATAATATATGTC [XGTACX_site3766]	6.41
TTTATATATTTTAGGAGTACATTAAATTATACCTTA [XGTACX_site5600]	6.03
TGTATATATATTTATGCATGCTGTGTGTATTCTTTT [TGCATGCA_site74]	7.08
AATAAAAAAAAAATAAATTTAATAATAATAATAAAA [CACACA_negctrl_site569]	6.46
AAAAAAAAAAAAAAAACACACAGAAATATATATATA [CACACA_site4611]	8.64
AAAGAAGGGAAACACACACACACACCCACAAAAAAA [CACACA_site3766]	6.87
ACCTAAAATAACTACACACACATAAAAAAAAAAAAA [CACACA_site2529]	6.49
TTTTTTTTTTATTCTTCACACATTTCCAATAAAAAA [CACACA_site5601]	6.82
GTTATTATATATATGTGTACTTAAAAATTTTATGTC [XGTACX_site6084]	7
TATAACAAAAAAAAATAAAAAATAAAACTATATATA [CACACA_negctrl_site504]	6.32
ATCAAAATTGTCATTACACACCTTTATTTTTATAAT [CACACA_site5071]	6.84
AAGAAAAAGAATAACCTTATTTCTATATACTAATTT [TGCATGCA_negctrl_site477]	5.76
TTTGTTCTTTTTGAAGTGCACTGAAATATAACAAAA	10.9
AAAAAAACACACACATATATATATATATATATATAT [GTGCAC_negctrl_site498]	9.43
TGTTTTATTTATTAAGCACACGCGATTTAAAAAATA [CACACA_site981]	6.18
TTCATATAATTCATCTGTACATATTGATAGTATGCA [XGTACX_site6386]	6.29
TCAAATGTGTAATCTTGTACACATTAAAAGAAAAAA [XGTACX_site8822]	6.6
AATAATATATGGACATGTACATAATATATATTTTTT [XGTACX_site312]	6.39
TATGTATTAATGAGAACATGCAAAATAATAAACAAT [TGCATGCA_site362]	7.17
ATATATCAAATAGACAAACACACAAAGGAAGAGTGA [CACACA_site3922]	6.92
CACAGACACGGACACACACACACACCCAGACACATA [CACACA_site4357]	6.79
CATATACACGAACACACACACACACGCACAAAAAAA [CACACA_site6376]	7.99
ATATATATATATATATGTACATATGTCAACTGTCTA [XGTACX_site8636]	9.26

Sequence	gcPBM binding intensity (ln)
CATACATACAAACACACACACATATATATACATACA [CACACA_site852]	7.15
TTAAATAATTCTTTTAGTACACACGAATAAGCAGAT [XGTACX_site623]	6.72
TAATATATTAATATATGTACGTATTTTTATTAATAT [XGTACX_site5346]	6.5
TATCTTATATATAAGTGTACGCAGATTCTTACGATA [XGTACX_site6058]	6.17
ATAATTAATGATGTATGTACGGAATTTATATATTTG [XGTACX_site5685]	6.33
GTATACATATTTATAATAATAAATGTCTTATATTTT [CACACA_negctrl_site688]	6.31
ATAGTAATAGAATGATTGCACTTAAATTTTCCCTCT	7.86
TGTTATTCTACATATACACACAAATAACAATTTAAA [CACACA_site1824]	6.81
AAAAAAAAAAAGAACACACACAGTGCACATTCGGTG [CACACA_site788]	9.85
AATACAAAAAAAGGTACACACATAATATATTTATTA [CACACA_site2628]	6.46
TTAACTTTTTTATATGCACACATAAACAAGGATATA [CACACA_site8932]	10.1
CTAATTGTGTATACCTGTACATATATATATATATAT [XGTACX_site416]	9.43
TTTCCCTCAAATAAAGTGCATTATGATTTTAATTTA	8.15
ATGTATTTATTTTAACGTACAAGATATTATTATTAT [XGTACX_site4609]	6.21
AAATTATATATGATGTGTACATAAATATATACACAT [XGTACX_site8761]	6.82
TTATTATTCAAGAGGAGTACATTATGTGTATAATAT [XGTACX_site4995]	7.85
TATATTTAGAGAGAGACACACAAAGGGACTTACACA [CACACA_site2545]	6.67
ATATGGCATATTTGTATTATACATACATATGTATCT [TGCATGCA_negctrl_site562]	6.58
AAATTATAATATAATACACACATAAAAAAAAAAAAA [CACACA_site7]	6.51
TTTGTTTGGTTTTGGTGTACTTTTTTTTTTTTTTCT [XGTACX_site2050]	6.84
GAATTATAAGAATAAACACACAAGCTTAAAAAAAAA [CACACA_site1204]	6.28
AGAATTCAACAATGTTGTACATACACACACACAAAA [XGTACX_site5035]	7.23
TTTCTTTTTTCACGTGCATGCCATTTAAGTATTAAT [TGCATGCA_site651]	8.07

Sequence	gcPBM binding intensity (ln)
ACTAAACTTATATGTACACACATATAACATTAATTT [CACACA_site2258]	6.67
ACATATGTATAATATGCACACGTCATTTTCCCCTTA [CACACA_site5194]	9.78
TTATTATTTGGTTATAGTACATAATATAATATATAT [XGTACX_site6911]	6.3
TATATATATATGTATGCATGTTGTTTTTTATTTAAT [TGCATGCA_site343]	8.94
CTATATTTCGTTGGACGTACAAATGTGATAATTAGG [XGTACX_site3232]	6.55
ATACGAAGAAATGTTCATTTATTTCGAACATTTAAT [CACACA_negctrl_site1481]	6.05
AATATAATATAATATAGTACGTAAAAATATTATACA [XGTACX_site2170]	6.57
TTTTTCATAAAACACACACACAAAAATAATGTGGAA [CACACA_site3687]	6.56
GTATTAATATATAATTGTACTTTTTTTTTTTTTTTT [XGTACX_site4369]	6.3
AAAAAAAACGGACACACACACATTCAATATAAAACA [CACACA_site4189]	6.78
TTCACATGAAGAATTAAAATAAAACTAGGAAATTAA [CACACA_negctrl_site1047]	6.18
TTTTTATATTTTACATGTACATAAATATATTATATA [XGTACX_site958]	6.46
AATAATGAATTGAAATGTACATATTTTTATTAATAC [XGTACX_site8899]	6.36
ATCACCAAATGGGCTATACAACAATGAGAAATGGTA [CACACA_negctrl_site48]	6.55
TGTGTATATCGATAAAGTACATTTGAAAAGTGACTT [XGTACX_site6957]	6.33
GTAATATGTATCCATACACACATACAGTTTATTTGC [CACACA_site6540]	6.54
TCCACTTAACTCAATTGTACAAAAATAAAAATTAAA [XGTACX_site855]	6.45
TTTTATGCGCAATAAGTGCATTTAAAATATATATAT	9.25
ATAATATATATATATATATTATCAAATATATATATA [GTGCAC_negctrl_site346]	8.11
AAAAAATAATAATAAAATGAATAGATATGTATTTAT [TGCATGCA_negctrl_site210]	6.32
AATAATATATATTGTACACACAAAATGGGAAAAAAA [CACACA_site5100]	7.12
TTATAAAAAAAAAAAAAAAATATATATATATATATA [XGTACX_negctrl_site592]	9.25
ACAAAATGTAAATAAACACACATATATATATATATA [CACACA_site1281]	9.44

Sequence	gcPBM binding intensity (ln)
AACATATTATCTTGTGAAAATAATATAAGTCACATT [TGCATGCA_negctrl_site339]	5.94
AGCAGAGTTACAATTTGTACGTAATTGATATAGATA [XGTACX_site4051]	6.57
ATATATATATATATTTGTACAGAAAATATTTTAATA [XGTACX_site3706]	8.92
AACTAAACAAAAGTTACACACATCATACGATATTAT [CACACA_site3180]	6.35
ATAATTTATATTCAGAAACACACGAAAAAAAAAAAT [CACACA_site1296]	6.81
ATGTTAAGAATAATTAGTACTTACATATGTATAATA [XGTACX_site4419]	6.58
ACCATATAATTTTTTTGTACATAATGATTTTTTTTT [XGTACX_site1104]	6.74
TATATTATATACGTCTGTACACAAATGAGAGGTAAA [XGTACX_site5538]	7.05
TACAATGTGGATAATTGTACAAAACCGATAAGAGGG [XGTACX_site6453]	7.57
TTATATACCCTAATATGTTTTATTATTATTATATAT [TGCATGCA_negctrl_site6]	6.3
TATATTCTACAAGAATTATGAATTGTCAGACCAAAT [CACACA_negctrl_site1101]	5.99
TTTATTTTCATATGAACACACATATATATATTATAA [CACACA_site2369]	7.23
CTGTTTTTGTTTTAAAGTACATTGTTCAATATACAT [XGTACX_site5288]	6.74
TGTTCTGAACGGTTCATGCACTTTTTTTTGTTAATT	7.02
ATATAAATAATATAAATACACACTAAAAAAAATATA [CACACA_site542]	6.74
AAAAAATAATTGAAGTGTACGTACAATGATTTTACT [XGTACX_site7663]	6.38
GTATTCTACAGACACATACACACATATATATATATA [CACACA_site3427]	9.34
AAGAAAAACTTTACGTGTACCAAACATCCTGCCGAC [XGTACX_site4895]	6.5
TAAACCTTAAAATATTTCTCATGTTTAACTTATATT [GTGCAC_negctrl_site233]	6.68
TTATAATATTGTGGTATACACACCTTACAAAAAGGT [CACACA_site2878]	6.58
